Data reported in the BET-seq Pho4 binding data (Le et al. 2018).
The other results are listed elsewhere or left out. Values were computed here from the reads of four pooled replicates and scatter widely.

biological target: T1, Pho4 (S. cerevisiae) (UniProt P07270); experiment: relative binding free energy (BET-seq); higher = weaker binding; details: reference: library average
T1 sequence: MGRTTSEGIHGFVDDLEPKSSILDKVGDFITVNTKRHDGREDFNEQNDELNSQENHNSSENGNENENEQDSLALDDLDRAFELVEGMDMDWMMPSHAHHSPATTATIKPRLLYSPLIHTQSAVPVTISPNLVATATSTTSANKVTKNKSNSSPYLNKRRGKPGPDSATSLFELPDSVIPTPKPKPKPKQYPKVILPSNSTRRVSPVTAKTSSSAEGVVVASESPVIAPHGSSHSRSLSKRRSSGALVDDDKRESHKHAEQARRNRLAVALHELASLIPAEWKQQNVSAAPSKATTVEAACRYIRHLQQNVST

Row | Sequence | relative binding free energy
1 | TTGTTCACGTGGGATG | 0.3 kcal/mol
2 | TGAGGCACGTGATTTG | 0.01 kcal/mol
3 | ACGGGCACGTGTATTG | -0.12 kcal/mol
4 | CGTTTCACGTGTCGTT | 0.21 kcal/mol
5 | GACATCACGTGGGTGT | 0.15 kcal/mol
6 | TAATTCACGTGTGTTA | 0.4 kcal/mol
7 | ATTACCACGTGTGTTT | -0.13 kcal/mol
8 | TTGTGCACGTGAGGTC | 0.25 kcal/mol
9 | GCGCGCACGTGGGATG | -0.11 kcal/mol
10 | ATTTGCACGTGGCGCA | -0.07 kcal/mol
11 | GGATACACGTGTTTGT | 0.03 kcal/mol
12 | TGGGGCACGTGATGCT | 0.07 kcal/mol
13 | TTTGTCACGTGGAACT | 0.16 kcal/mol
14 | AGTGACACGTGAGGAG | 0.1 kcal/mol
15 | ATGAGCACGTGCGGAG | -0.13 kcal/mol
16 | CTTGGCACGTGTGATA | 0 kcal/mol
17 | TGTCGCACGTGATGTT | -0.03 kcal/mol
18 | TATATCACGTGCGGGC | 0.07 kcal/mol
19 | GTGGGCACGTGGTTTA | 0 kcal/mol
20 | TTTGTCACGTGCAGGG | 0.09 kcal/mol
21 | TGAGGCACGTGTGCGG | -0.12 kcal/mol
22 | TTTTACACGTGGCGTA | 0.15 kcal/mol
23 | CGGGTCACGTGGGAGC | 0.03 kcal/mol

Row | Sequence | relative binding free energy
24 | GGTATCACGTGTCTTA | 0.23 kcal/mol
25 | CGGGTCACGTGTTTTG | 0.12 kcal/mol
26 | ATGCACACGTGGTGAG | 0.13 kcal/mol
27 | TTATGCACGTGAATTG | 0.27 kcal/mol
28 | ACGTGCACGTGTAGTG | -0.04 kcal/mol
29 | AATTGCACGTGTGGAT | 0.08 kcal/mol
30 | TTACGCACGTGGGATT | -0.26 kcal/mol
31 | TGGGCCACGTGTTGGT | 0.05 kcal/mol
32 | TTGTGCACGTGGCGGG | -0.06 kcal/mol
33 | GTTAGCACGTGATAAG | 0.1 kcal/mol
34 | GTTGACACGTGATGAT | 0.19 kcal/mol
35 | TGTGACACGTGGGATT | 0.03 kcal/mol
36 | TTGTTCACGTGTTTAT | 0.2 kcal/mol
37 | AGTTGCACGTGCAGTA | -0.06 kcal/mol
38 | AATCGCACGTGGGTAT | -0.13 kcal/mol
39 | GGCGACACGTGTTTTT | 0.16 kcal/mol
40 | TATATCACGTGTGTGT | 0.13 kcal/mol
41 | TGCGCCACGTGTGGTA | -0.04 kcal/mol
42 | ATGGACACGTGAATGG | 0.31 kcal/mol
43 | GCAATCACGTGTTGTT | 0.11 kcal/mol
44 | TGGGGCACGTGTGGAG | 0 kcal/mol
45 | TATATCACGTGATTGT | 0.29 kcal/mol
46 | ATGGCCACGTGTCTGT | 0.02 kcal/mol

Row | Sequence | relative binding free energy
47 | GGCGCCACGTGTGAGG | -0.05 kcal/mol
48 | TGACTCACGTGGAGGA | 0.23 kcal/mol
49 | CCTGGCACGTGTTTTG | 0.02 kcal/mol
50 | GGTACCACGTGGGCGT | -0.08 kcal/mol
51 | GAAGTCACGTGTACGG | 0.2 kcal/mol
52 | ATCGACACGTGTTAGT | 0.06 kcal/mol
53 | CAGTTCACGTGGGCGG | 0.07 kcal/mol
54 | AGGGGCACGTGTCTTA | -0.17 kcal/mol
55 | GGTCGCACGTGTAGTG | 0.17 kcal/mol
56 | AAAATCACGTGGATGT | 0.08 kcal/mol
57 | GACGTCACGTGATGGG | 0.26 kcal/mol
58 | TTGGCCACGTGGTGGC | -0.09 kcal/mol
59 | TGTCTCACGTGTGCGA | 0.27 kcal/mol
60 | TGATGCACGTGTTGAC | -0.07 kcal/mol
61 | TGTAGCACGTGTATTT | -0.05 kcal/mol
62 | GAGTGCACGTGGTGGT | -0.05 kcal/mol
63 | GAGAGCACGTGTGTGA | -0.1 kcal/mol
64 | GGTTGCACGTGGGGGC | -0.02 kcal/mol
65 | AGAGGCACGTGCGGAT | -0.13 kcal/mol
66 | CTGTGCACGTGGTCCG | -0.02 kcal/mol
67 | CGCGGCACGTGCGTTT | -0.03 kcal/mol
68 | CGCGGCACGTGTGGTT | -0.07 kcal/mol
69 | TGATTCACGTGGAAGG | 0.26 kcal/mol

Row | Sequence | relative binding free energy
70 | CGCGGCACGTGGAGAG | -0.07 kcal/mol
71 | ACGGGCACGTGGGATA | -0.2 kcal/mol
72 | TTGTACACGTGCTGAT | 0.01 kcal/mol
73 | GCTATCACGTGGGGTG | -0.03 kcal/mol
74 | TTGTTCACGTGGTTTC | 0.4 kcal/mol
75 | GGATTCACGTGTAAGG | 0.23 kcal/mol
76 | GGTATCACGTGGTTGC | 0.23 kcal/mol
77 | TGGTACACGTGTGCCG | 0.07 kcal/mol
78 | CATATCACGTGAGGGG | 0.29 kcal/mol
79 | TACGGCACGTGGGTGC | -0.24 kcal/mol
80 | TCTTGCACGTGATTGG | 0.1 kcal/mol
81 | GTGGTCACGTGCGAAT | 0.01 kcal/mol
82 | TGATTCACGTGTAGTA | 0.15 kcal/mol
83 | CTGGTCACGTGGTACT | 0.05 kcal/mol
84 | CTTAGCACGTGAGTAT | 0.18 kcal/mol
85 | AGAGGCACGTGGATTT | -0.14 kcal/mol
86 | ATTTTCACGTGCAATT | 0.27 kcal/mol
87 | CGAGCCACGTGGAGGG | 0 kcal/mol
88 | ATATTCACGTGTTGAA | 0.12 kcal/mol
89 | GTTGGCACGTGGCGGG | -0.09 kcal/mol
90 | CGGCTCACGTGCGTTG | 0.3 kcal/mol
91 | ATTCTCACGTGTCGGT | 0.28 kcal/mol
92 | TGTGGCACGTGGTAAT | -0.05 kcal/mol

Row | Sequence | relative binding free energy
93 | CTGTACACGTGTGAGG | 0.13 kcal/mol
94 | CTGGACACGTGTGTCG | 0.02 kcal/mol
95 | TTCTCCACGTGTTTGT | -0.15 kcal/mol
96 | GCGTGCACGTGTTAGG | -0.07 kcal/mol
97 | TAGATCACGTGGTTGA | 0.07 kcal/mol
98 | TTTGGCACGTGTCTAT | -0.1 kcal/mol
99 | TAGATCACGTGGCGTT | 0.1 kcal/mol
100 | GTGAGCACGTGAAGTA | 0.11 kcal/mol
101 | AATGCCACGTGGGTTG | -0.3 kcal/mol
102 | TGTCACACGTGGTGGA | 0.01 kcal/mol
103 | TTTAGCACGTGAGAGA | 0.27 kcal/mol
104 | TTTTGCACGTGCTCTG | -0.12 kcal/mol
105 | GATGTCACGTGAAGTT | 0.35 kcal/mol
106 | GTTGTCACGTGGCAAA | 0.17 kcal/mol
107 | GAAGGCACGTGTAAGG | 0.02 kcal/mol
108 | TGAGACACGTGTGAAG | 0.11 kcal/mol
109 | CAGGGCACGTGGTCGG | -0.2 kcal/mol
110 | GCAGGCACGTGGGGTC | -0.18 kcal/mol
111 | TTCAGCACGTGAGTGT | 0.21 kcal/mol
112 | AAGATCACGTGTGTGC | 0.18 kcal/mol
113 | CTAGTCACGTGGTATA | -0.02 kcal/mol
114 | ATGGACACGTGAGATT | 0.31 kcal/mol
115 | TTCAGCACGTGGGGCT | -0.23 kcal/mol
